Measured values: PMC6212790
The list shows a part of the results. At the low end of the ranking the order means little.

Target: T1, GST-Rok (full length) (UniProt O34857)
T1 sequence: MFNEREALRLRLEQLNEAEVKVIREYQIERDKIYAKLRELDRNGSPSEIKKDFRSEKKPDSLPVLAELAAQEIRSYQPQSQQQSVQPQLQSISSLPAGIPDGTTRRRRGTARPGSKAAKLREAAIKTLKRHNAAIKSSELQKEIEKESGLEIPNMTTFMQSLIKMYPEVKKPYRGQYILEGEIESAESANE
Assay: protein binding microarray;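 also: rank score from −0.5 (least bound) to 0.5 (best bound)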
Settings: Rok is a gene silencer of Bacillus subtilis; high values mean tight binding; most listed sequences are background and not binding sites; double strand, one strand shown

Sequence | binding signal [E-score]
GCCGCTAA | 0.188
CCACCTCG | -0.203
GAGAGTAC | 0.0421
CGCGCCCA | -0.323
TATGCACA | 0.189
CTTTGACC | -0.0937
GCGGTTAA | 0.2
CCACTCTC | -0.106
ACTTAAGG | -0.0844
AGAATACA | 0.07
ATCCACAG | -0.0161
CTCAGAGC | -0.195
CTACTCTC | 0.0741
ACTTGCTG | 0.0978
AATCGTGG | 0.0461
CTGCGTCC | -0.261
ACTCGGCT | -0.0983
AAACATAT | 0.316
ACACCAAT | 0.0951
AAATTACG | 0.194
GTCCGGGA | -0.145
CGTAACCA | -0.166
ATGCACCA | 0.0237
GCAGCATA | 0.127
AAGTAGCA | 0.204

Sequence | binding signal [E-score]
ACAGCAGT | -0.0233
ATGGCTGA | 0.0206
GGCGCGCA | -0.189
GGGTATAC | -0.113
CCACTACA | 0.0814
ACCCTATA | 0.109
AGTTCCCG | -0.287
ACGTACCT | 0.0285
TCAGTCGA | -0.0164
ACTCTCTG | -0.108
GGCTTTTA | -0.146
ATGCACTG | 0.0771
AAAAAAGG | -0.151
CTAAGAAA | 0.152
CGTTAAGA | -0.0916
AGAAGCTG | 0.0165
AAAATTCT | 0.111
AGTGCTGG | -0.0765
AAAACCTT | -0.0977
AAGGGTAA | 0.114
AGAGTTGA | -0.0925
AATTGGGC | -0.277
AATTGCCT | -0.0123
ACCTGTAG | 0.0716
AACCTATA | 0.239

Sequence | binding signal [E-score]
CATCTCCG | -0.175
CTCCCAGA | -0.267
GACTAGGA | -0.00844
ACAAAGTG | 0.00867
CATGAAAC | -0.125
AAAGGTCC | -0.229
CCCGTATC | -0.19
CGTGCTAG | -0.00174
AAATCGTC | 0.0685
GCACCATA | -0.0109
CATACAGG | -0.038
CAGCGCGC | -0.112
GTAAAGTA | 0.332
TCAATGCA | -0.0144
GAGGTAAA | 0.199
CAGGGGAA | -0.201
CTGAAGCC | -0.293
ATTCGACC | -0.0214
ACGCCACT | -0.16
GAAGCTGC | -0.174
CTACGATA | 0.302
GACCAGCC | -0.335
GCCCTTTA | -0.161
GGTCCAGA | -0.295
CGGTCAGA | -0.032

Sequence | binding signal [E-score]
CTACGGTC | 0.0649
ACGAGATA | 0.0753
ATATAGAG | 0.208
AGTAAAAC | 0.31
ACGGGACT | 0.0251
AGCGTAGC | -0.259
CGGCGTTA | -0.028
GGAAGGTA | 0.0109
GGACTCTA | -0.165
AATTACAT | 0.281
GAGGCAGC | -0.244
CCACGAGA | -0.174
CAAGGCCC | -0.349
GACACTGC | -0.145
AAAATCTG | 0.0686
AATTGTCA | -0.0939
GACGTTGA | -0.179
CATAATCG | 0.218
ATAATGAC | 0.206
AGAACGGC | 0.077
ATCATAAA | 0.212
CAATGCGA | -0.136
AAGTATCA | 0.259
ATTTTCCG | 0.302
GCTTCTCA | -0.163

Sequence | binding signal [E-score]
ATTTCAGC | 0.0741
CCGACTTA | 0.0559
CCTGCAAG | -0.297
AATCGGGG | -0.22
ACACGCGG | -0.245
CGGATAAG | -0.0988
GCAAGTAC | 0.205
CATAATTC | 0.126
AGTTTGAC | -0.0534
ACACAAAT | 0.209
ACTTACCA | 0.263
GTCCGTGA | -0.308
CATCCTGA | -0.235
ACCACCTG | -0.108
CAAGCATG | -0.12
AGCCCGTG | -0.00226
CCAACTGC | -0.00979
CACTTTGC | -0.14
AGGTGGCA | -0.138
AGCAGCCA | -0.218
ACTTTAGG | -0.0321
AGATTTGG | 0.223
AGGGATAC | -0.132
ACCCGATG | -0.239
CCTGTGTA | -0.0358

Sequence | binding signal [E-score]
CCCGAAAC | -0.0746
CGAGCACG | -0.296
AAACGTAA | 0.221
CCCCTAGC | -0.374
ATTCTGTA | 0.21
AGCGACAG | -0.152
TTCTGCAA | 0.0273
CTACCTCA | 0.242
AAGACCGT | -0.15
CACCAGAC | -0.164
CGCCAGGA | -0.2
TCCAGGGA | -0.274
GTGAAAAC | 0.132
ACCGTTAA | 0.183
GACTATGC | -0.202
AAAATACG | 0.303
ACTCGCTC | -0.0674
ATTAGAGA | 0.0714
CGCAAGAC | -0.0406
CGCGATGA | 0.0767
CAACTCTG | -0.0271
AACTATCG | 0.316
AAGATAAC | 0.0492
CTTGGCTA | -0.0112
CATATGAG | 0.0142

Sequence | binding signal [E-score]
GCACCAAA | -0.0986
AACACGTT | -0.0392
GGAGGGTA | -0.234
GGACCCGA | -0.32
ATGGTTCG | -0.135
CTGCTAGC | -0.111
ACCAGCAA | 0.0448
AAGCCATG | -0.192
TAGACCTA | 0.0651
GACTGGCA | -0.123
AGAGTTTG | 0.112
AATAGCAC | 0.071
CCGTCTGC | -0.242
AGATTCAG | 0.0353
GCCCCAAC | -0.25
GGAGTACA | -0.0203
CATTGAAG | 0.107
GACGGTAC | -0.0776
CACAGAAG | 0.117
AAGCATCG | 0.00495
CAGCACGA | -0.115
CTAGAGAG | -0.342
GGAGGCCC | -0.372
ACGGTAGG | 0.137
GATGGGGC | -0.255

Sequence | binding signal [E-score]
GGATAGCC | -0.165
GGTATTGA | 0.0438
CCAGAAGC | -0.122
CCTAAACG | -0.104
GATATAAC | 0.293
CCTTCCAA | -0.213
CGCCTGCA | -0.254
CGCTTTTC | 0.046
ATGGTTTA | 0.205
AACAGGGA | -0.18
CACCGTAA | 0.0521
ACATTTCA | 0.146
CGGGGCAG | -0.383
CAGGCTAC | 0.00117
GAGCCTGA | -0.264
AGGCACGC | -0.285
CACCGTCG | -0.29
GACGAGTA | 0.0347
AGGTTGAT | -0.0391
CGTCCGCA | -0.223
GATCGACC | 0.156
GATACCCA | 0.0218
GCGTTGTA | 0.0833
CCGATGAG | -0.123
ACTCCACT | -0.0107

Sequence | binding signal [E-score]
GTGGTGCA | -0.0785
ACTTATCT | 0.251
AGACCTCA | -0.243
ACGGATCC | -0.0665
GGTGCCAA | -0.118
GAGCACCC | -0.186
GCCACTAA | -0.0623
GCGTGTAA | 0.0414
AGTCCCAA | -0.145
AGGTATGG | -0.0734
CCTCTGAC | -0.143
CACGCCCG | -0.312
GGGAAGAC | -0.284
AAGGTTCA | -0.0838
CAGTCACC | -0.156
AAGACGTG | -0.092
ACGGTCCA | -0.0889
ATGCGAAA | 0.165
GCCATGAC | -0.165
TATGCTAA | 0.229
AATTCCAG | 0.13
AATGGCGC | -0.0113
AAGCAGAA | 0.142
AATCTCCA | 0.12
CGCATCAA | 0.0185

Sequence | binding signal [E-score]
AAAGTCCT | -0.139
CCCTAATA | -0.151
ACATACAA | 0.312
AGGCAGCG | -0.0852
ATATGCGC | 0.256
CGCTTCCC | -0.243
ACCCCAAA | -0.151
TTCACGAA | -0.0124
CCTCTTAA | -0.235
AGTAAACA | 0.0694
CAAGTGTC | -0.0185
CCGGTACC | -0.0284
ATCCAGTG | -0.172
CGTTTCAA | -0.0365
AAAATTGC | 0.228
AACAAGCG | -0.0304
CCTTTTCA | -0.222
TCACGTAA | 0.0949
ACCCGAAT | -0.0449
CAGATCTG | 0.0192
CCACGTCG | -0.199
AGATAAGG | 0.0533
TACGTAAA | 0.208
CTGGTTAC | 0.117
CACACCTC | -0.0439

Sequence | binding signal [E-score]
ATCGTCCG | -0.0152
TATTCCAA | 0.23
GGTAACGA | 0.0762
GTTGAGAA | 0.0912
CGTTAGGC | -0.211
CATTATCA | 0.323
CCGTCGAC | -0.217
ACCCGCTG | -0.265
CTTTTTTA | -0.116
GAACGTAC | 0.122
TAATGTCA | 0.17
CAAGGCGA | -0.302
ATGTGCCC | 0.0198
GGGTTACA | -0.0277
TAGCGTGA | 0.12
CCGTTGCG | -0.168
AGTTCTCG | 0.0719
CTCCCAAG | -0.39
AGCAGGCG | -0.199
CGCAGGCG | -0.345
ATATTGAA | 0.246
TGAGTCAA | -0.0233
CGGGCCCC | -0.461
CAACGTAA | 0.045
ATGTCTGA | -4.21e-05

Sequence | binding signal [E-score]
AGAGTACT | 0.165
CGGACCCC | -0.414
CCGGCAAG | -0.144
CAGGCAAC | 0.0224
GTAAGGCA | -0.0457
CGTAAAAA | 0.0957
CTTAGCCC | -0.215
ACGCGACA | -0.0894
GACACGTC | -0.127
AGGCTAGC | -0.0469
ACGATCGA | 0.197
CCTAGGAC | -0.0373
CATATGAA | 0.0706
AGAGAAGA | 0.0708
ACAAGAAC | 0.0914
ACCCACGT | -0.101
ATGAGCAT | -0.176
GCTGCGTA | -0.0538
CGAGTGAA | -0.0229
ACATATTA | 0.345
ATTCTCTC | -0.119
AGGAAGCC | -0.192
ATTCGGAA | 0.235
CCGCCACC | -0.305
ATCCTTAA | 0.0302

Sequence | binding signal [E-score]
CCACGAAA | -0.0137
CACAAGTC | -0.214
GAACTCAC | 0.0902
ATCTGTGA | -0.12
CCTGTGCG | -0.299
AAGAGCGT | -0.0692
AGGCCAAC | -0.0771
AATTGGAG | 0.152
CCTAAATA | 0.288
AGCCTTCA | -0.227
GTAATGAA | -0.0724
GGTCAGCA | -0.194
ACACGCAG | -0.3
GTCGGCGA | -0.166
CGTATGAG | 0.0203
TAACACCA | 0.0451
CCTTAGCA | -0.152
CACTGACG | -0.00725
ATCCGCCA | -0.347
ACAGACCT | -0.218
CACCCGAG | -0.167
CACGTGCA | -0.109
AAGTACGA | 0.192
CACGGAGA | 0.0382
GCTAAACA | -0.0536

Sequence | binding signal [E-score]
CGGGGGGA | -0.39
CGTTCAAG | -0.124
ATAGCCCG | -0.106
AAAAACAT | 0.2
TCGACTCA | 0.128
GATATTGC | 0.0457
ACAGTGGA | -0.0353
CTTGTACA | 0.187
CGAAAAGA | 0.00822
ATAGCTGA | 0.159
CTAAATAA | 0.251
GGGAGACA | -0.322
CAGCACTA | -0.0863
ATATCGAC | 0.191
AATGTCAA | -0.0246
AGATTACA | 0.108
TAAATTGA | 0.23
AGTATGAG | -0.0193
GAGTACCA | -0.0678
